Measurements from the supplement of paper PMC10126150.
Values marked as one replicate rest on one cluster of the flow cell; about a third of the high ones do not repeat.

Test system: ATP
Test: switch fluorescence ratio, 500 uM ATP over buffer (Cy3 cluster intensity, sum of 5 cycles each) (fold (ratio)); higher = stronger signal-on switching upon ATP binding; sequences stand for … in TCGTCGGCAGCGTCAGATGTGTATAAGAGACAGTTTTTTTTTTTTTTTTTTTTTTTTT…TC
Settings: aptamer strand: ATP DNA aptamer (quencher-CACCTGGGGGAGTATTGCGGAGGAAGG + anchor), 100 nM annealed; ATP concentration: 500 uM; one replicate
Procedure, shortened: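 The fluorescence ratio divides summed target-cycle Cy3 intensity by summed buffer-cycle Cy3 intensity for each cluster and is averaged per switch-domain sequence. Cy3-labelled switching-strand clusters on a modified Illumina MiSeq flow-cell were annealed to 100 nM quencher-labelled ATP aptamer, then imaged in selection buffer and again after 15 min with 500 uM ATP at 22 °C. Five such cycles were run, with NaOH stripping and re-annealing between them, and clusters outside 100-1000 RFU were excluded.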
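Also: ATP exposure 15 min at 22 °C before imaging.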

TTAGATAAGA
switch fluorescence ratio: 0.979

TCGTGCAGGA
switch fluorescence ratio: 0.994

AATAAAATAT
switch fluorescence ratio: 1.04

TGCGATGCCT
switch fluorescence ratio: 1.04

GGTGGACTTT
switch fluorescence ratio: 0.974

GTGGGTAG
switch fluorescence ratio: 0.968

ACCCTTTTTT
switch fluorescence ratio: 1.05

AGCTACAGCA
switch fluorescence ratio: 0.955

TGTGGCTGAT
switch fluorescence ratio: 0.983

GTTGTTGCCG
switch fluorescence ratio: 1.02

GAGCGAACGA
switch fluorescence ratio: 1.08

CCTAATGGTT
switch fluorescence ratio: 1

AAATTCGAGC
switch fluorescence ratio: 1.03

CGTCCCGAGA
switch fluorescence ratio: 1.02

TAGCCAGCTA
switch fluorescence ratio: 0.988

CTGACAACT
switch fluorescence ratio: 1.05

TCCGCCCTTA
switch fluorescence ratio: 1.32

TCGGCAGATG
switch fluorescence ratio: 0.967

CAGATCAGTG
switch fluorescence ratio: 0.999

AGATAGTATA
switch fluorescence ratio: 1

GGGTTTAC
switch fluorescence ratio: 1

GTCGAAAGCC
switch fluorescence ratio: 0.953

TCAGGTCAGA
switch fluorescence ratio: 1.04

TAGGTAAGTC
switch fluorescence ratio: 1.03

AACAGTACCG
switch fluorescence ratio: 1.12

CCAATTTCAG
switch fluorescence ratio: 1.03

GCCAATTTTG
switch fluorescence ratio: 0.989

GTATCAGGTT
switch fluorescence ratio: 0.965

AATCTGCTTA
switch fluorescence ratio: 0.994

TAGCTTAT
switch fluorescence ratio: 1

TTGGTGTATG
switch fluorescence ratio: 1.05

GGGTATCTTA
switch fluorescence ratio: 1.02

AGCGGACCGC
switch fluorescence ratio: 1

TTATAATGTT
switch fluorescence ratio: 0.996

TTACCCGGGT
switch fluorescence ratio: 1.06

TGTAGGGGAG
switch fluorescence ratio: 0.996

TAGTTAACGT
switch fluorescence ratio: 1.03

ATCAGAGCGA
switch fluorescence ratio: 1.06

GCGAGGGGTC
switch fluorescence ratio: 0.996

TTGTAAGTAC
switch fluorescence ratio: 1.7

AAAACTGCTT
switch fluorescence ratio: 1.07

GCGGAGTTCG
switch fluorescence ratio: 1

ATCGTATTAA
switch fluorescence ratio: 0.984

TGGTTCGGAT
switch fluorescence ratio: 0.979

TGGTTTCGT
switch fluorescence ratio: 0.949

ACTCGTCTAT
switch fluorescence ratio: 1.02

TTAAGATCGT
switch fluorescence ratio: 0.995

CTAGCTCCGG
switch fluorescence ratio: 1.1

CAACTACCCA
switch fluorescence ratio: 1.04

AAGTTACTG
switch fluorescence ratio: 1.06

GAATCAGTCT
switch fluorescence ratio: 0.997

GGACTATCAG
switch fluorescence ratio: 1

CTTTAAGATG
switch fluorescence ratio: 0.97

TAGGAGTAG
switch fluorescence ratio: 0.948

ACGAGTAG
switch fluorescence ratio: 1.01

CATCGCATGG
switch fluorescence ratio: 2.18

CTTGAACTGG
switch fluorescence ratio: 1

AACGGCCAGT
switch fluorescence ratio: 1.04

CGGGGCAGGC
switch fluorescence ratio: 0.785

AACGGCATTA
switch fluorescence ratio: 1.1

ATTAAACCTG
switch fluorescence ratio: 1.29

TATATAGTTT
switch fluorescence ratio: 1.02

CATAAAGCAT
switch fluorescence ratio: 1.03

CCCGAAGTCC
switch fluorescence ratio: 1.21

CTGACTGGGA
switch fluorescence ratio: 1.04

CGCAGTGCTA
switch fluorescence ratio: 2.44

CATGCATGTC
switch fluorescence ratio: 1.06

ATTAAAGGCA
switch fluorescence ratio: 1.02

ACCGGTACGG
switch fluorescence ratio: 0.948

TGCTGAATTT
switch fluorescence ratio: 1.02

CAAGTCCATA
switch fluorescence ratio: 0.979

CATAAGCTTT
switch fluorescence ratio: 1.03

GTCGTTTTAT
switch fluorescence ratio: 0.959

CGAAACCGGG
switch fluorescence ratio: 1.14

CAAGTCGTGT
switch fluorescence ratio: 1.01

GGTAGTTACC
switch fluorescence ratio: 1.02

GAGTGCTGTG
switch fluorescence ratio: 0.944

TGACTCCAGC
switch fluorescence ratio: 1.54

CCTTATTCTC
switch fluorescence ratio: 1.03

TGGCTGACG
switch fluorescence ratio: 1.08

GCGGTAGTAA
switch fluorescence ratio: 0.961

GCGCTCGGTG
switch fluorescence ratio: 1.03

TGGACAGCTT
switch fluorescence ratio: 1.01

CTCTTTGGAG
switch fluorescence ratio: 0.989

TGGGAGGCCC
switch fluorescence ratio: 1.06

GGTGACAGCG
switch fluorescence ratio: 0.996

GCACTATTGA
switch fluorescence ratio: 1.01

ATAACTTCCG
switch fluorescence ratio: 1.26

TGGGGCTGCG
switch fluorescence ratio: 1.05

CATACCACGT
switch fluorescence ratio: 1.03

CGGCTCTCAA
switch fluorescence ratio: 1.11

GTTTTAGATT
switch fluorescence ratio: 1

ACCTCATTGC
switch fluorescence ratio: 1.05

ATACATGTAT
switch fluorescence ratio: 1.02

GATTATAATG
switch fluorescence ratio: 1

TGCACCAGCC
switch fluorescence ratio: 1.09

GACATCACGA
switch fluorescence ratio: 1.41

ACTTGTATTA
switch fluorescence ratio: 0.969

ACTCAACTTG
switch fluorescence ratio: 1.14

GTTTGAAACT
switch fluorescence ratio: 1.01

GTGACGGATA
switch fluorescence ratio: 1.01

AAATCTCAA
switch fluorescence ratio: 1.02

CACGTCGGCT
switch fluorescence ratio: 1.05

GCAAGTTTCC
switch fluorescence ratio: 1.35

GGCAGCTGCA
switch fluorescence ratio: 0.964

GATGATACTA
switch fluorescence ratio: 1.01

TCTTCCTTTG
switch fluorescence ratio: 1.34

CCAATGTCAG
switch fluorescence ratio: 0.959

GCGGGAGCAC
switch fluorescence ratio: 0.986

ATGCACCTAG
switch fluorescence ratio: 1.01

AGGCAAATTG
switch fluorescence ratio: 1.05

AGGAGGGAGT
switch fluorescence ratio: 1.02

TAGCTGAGTA
switch fluorescence ratio: 0.95

ATACTCCTGT
switch fluorescence ratio: 1.03

GCATCATGAC
switch fluorescence ratio: 1.07

ATGTAGAGAA
switch fluorescence ratio: 1.02

AGTCATATCC
switch fluorescence ratio: 1.01

AGGTTACCG
switch fluorescence ratio: 1.07

TCGTTTATTG
switch fluorescence ratio: 1.01

GGAGGGTCTT
switch fluorescence ratio: 0.98

AGGGAGCCGC
switch fluorescence ratio: 1.03

CGCCGGGCAA
switch fluorescence ratio: 1.19

GAGCCGATAC
switch fluorescence ratio: 4.7

AGTTGGAACG
switch fluorescence ratio: 1.13

TACTTGGTAG
switch fluorescence ratio: 0.961

GGTGGTATGG
switch fluorescence ratio: 0.984

CAAGAGGAAG
switch fluorescence ratio: 0.999

TAAGGTTTCA
switch fluorescence ratio: 0.97

CTGGGCAGGC
switch fluorescence ratio: 0.803

TGCTGTGATG
switch fluorescence ratio: 0.944

CGCCATGGCA
switch fluorescence ratio: 1.04

GTGCTACCGT
switch fluorescence ratio: 0.986

AAACGATAAC
switch fluorescence ratio: 1.15

CGGGTTATAG
switch fluorescence ratio: 0.995

CGCACGAGTA
switch fluorescence ratio: 1

TACCGGTTAT
switch fluorescence ratio: 0.958

CCTTAACATA
switch fluorescence ratio: 0.989

ATGATCGCTG
switch fluorescence ratio: 1.02

TTTATTTCAG
switch fluorescence ratio: 0.993

AGCTGAGTTA
switch fluorescence ratio: 0.996

TTGCCGGTTA
switch fluorescence ratio: 1.02

TCTAATGAAA
switch fluorescence ratio: 1.02

GGAACCAACT
switch fluorescence ratio: 1.08

TGTAAATGAC
switch fluorescence ratio: 1.02

GTGGGGGTCC
switch fluorescence ratio: 1.02

GCCATGTGCT
switch fluorescence ratio: 0.984

TTCCGCACAT
switch fluorescence ratio: 2.41

AGTGCACG
switch fluorescence ratio: 1.09

TTTGTGGAAA
switch fluorescence ratio: 1.02

TTTCTACCTT
switch fluorescence ratio: 1.14

AACTTTCACG
switch fluorescence ratio: 1.2

CGCGCCATGG
switch fluorescence ratio: 1

CAGCAGGGCC
switch fluorescence ratio: 0.983

ATAGGTTCAG
switch fluorescence ratio: 0.968

TGAGCCATCC
switch fluorescence ratio: 1.15

CAACGCTAAC
switch fluorescence ratio: 3.68

ACTGGCAGAT
switch fluorescence ratio: 0.985

TATTGTGGCC
switch fluorescence ratio: 1.05

CGCTGTAG
switch fluorescence ratio: 1.07

CGATTTTTG
switch fluorescence ratio: 1.03

GAGTAGTTTC
switch fluorescence ratio: 0.955

CGTTCGAGGC
switch fluorescence ratio: 1.03

TTAAGATCGG
switch fluorescence ratio: 0.917

CCCAAGCCGT
switch fluorescence ratio: 1.04

GATCCCTCTA
switch fluorescence ratio: 0.975

ACAACTAACA
switch fluorescence ratio: 1.11

GATGAGGGTC
switch fluorescence ratio: 1

TGGGCCAAGA
switch fluorescence ratio: 0.976

GATACGT
switch fluorescence ratio: 1.07

TGAACCCGT
switch fluorescence ratio: 0.985

TTGGTCCAAA
switch fluorescence ratio: 1.01

ATCTAAAATC
switch fluorescence ratio: 0.96

TGGACGATCT
switch fluorescence ratio: 1.09

CGTAATGGTT
switch fluorescence ratio: 0.992

CATCCAGACA
switch fluorescence ratio: 1.04

TCGGTTGATA
switch fluorescence ratio: 0.976

AGTTGCCGAC
switch fluorescence ratio: 1.03

CAAGAGTTGC
switch fluorescence ratio: 0.99

GGACTACAAT
switch fluorescence ratio: 0.979

GACTAGCCGT
switch fluorescence ratio: 1.01

GCGATAATGG
switch fluorescence ratio: 1.05

GTCACGTTGG
switch fluorescence ratio: 1.05

TTATCGTGCT
switch fluorescence ratio: 0.939

GCACTACGTC
switch fluorescence ratio: 1.07

CCGGCAGT
switch fluorescence ratio: 1.49

TCAGTCCGAT
switch fluorescence ratio: 1.03

AACATACTGT
switch fluorescence ratio: 1.11

ACTTATAGT
switch fluorescence ratio: 1.04

ACTATCTCAT
switch fluorescence ratio: 0.973

CAGTGAGAGG
switch fluorescence ratio: 0.952

GGGTTCCATG
switch fluorescence ratio: 0.988

TTGACGAAGT
switch fluorescence ratio: 1.01

TTGGGCCAGT
switch fluorescence ratio: 0.998

ATTTATTCGG
switch fluorescence ratio: 0.99

ACCAAAATCA
switch fluorescence ratio: 1.05

TCAGGGATAT
switch fluorescence ratio: 0.992

ACCCACATTT
switch fluorescence ratio: 1.22

AGGTAATCGT
switch fluorescence ratio: 0.983

ACTTGGCTCT
switch fluorescence ratio: 1.05

ATTCGCGGCG
switch fluorescence ratio: 0.986

GTGTAAACTC
switch fluorescence ratio: 0.931
